PubChem BioAssay AID1347165 (National Center for Advancing Translational Sciences (NCATS), 2019)
The campaign covered roughly 220,000 compounds. About 5,700 (2.6%) were called active. Inconclusive means that the source gave no clear call. Such entries were picked first, then a sample of the others. Calls follow the shape of the dose curve; as a rule, active = well fitted inhibition curve with a large enough effect; inconclusive = small, poorly fitted or top-dose-only effect; inactive = no such curve, though single readings can be large or run the other way. Potencies beside an inconclusive call are fits to weak or partial responses and may not hold up.

biological target: Lysine-specific demethylase 5B (Homo sapiens) (UniProt Q9UGL1); assay: Primary screen for KDM5B Histone Demethylases FDH-coupled qHTS; details: FDH-coupled NADH fluorescence (FDH is formaldehyde dehydrogenase); series mostly up to 57.7 µM; also: nearly all actives have a fitted effect of over 70% in size
How it was run: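 Coupled FDH/NAD⁺ fluorescence readout. KDM5BΔAP 200 nM final; compound titration, 10 min RT preincubation; substrate mix 12.5 µM H3K4me3, 25 µM 2-OG, 50 µM Fe(II), 100 µM ascorbate, 0.25 mM NAD⁺, 0.25 U/mL FDH; ΔRFU over 30 min.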
Potency is read from the fitted curve at half-maximal effect; tags tell the direction and shape of the fitted curve.

Sequence of UniProt Q9UGL1 (Q9UGL1 whole entry, looked up): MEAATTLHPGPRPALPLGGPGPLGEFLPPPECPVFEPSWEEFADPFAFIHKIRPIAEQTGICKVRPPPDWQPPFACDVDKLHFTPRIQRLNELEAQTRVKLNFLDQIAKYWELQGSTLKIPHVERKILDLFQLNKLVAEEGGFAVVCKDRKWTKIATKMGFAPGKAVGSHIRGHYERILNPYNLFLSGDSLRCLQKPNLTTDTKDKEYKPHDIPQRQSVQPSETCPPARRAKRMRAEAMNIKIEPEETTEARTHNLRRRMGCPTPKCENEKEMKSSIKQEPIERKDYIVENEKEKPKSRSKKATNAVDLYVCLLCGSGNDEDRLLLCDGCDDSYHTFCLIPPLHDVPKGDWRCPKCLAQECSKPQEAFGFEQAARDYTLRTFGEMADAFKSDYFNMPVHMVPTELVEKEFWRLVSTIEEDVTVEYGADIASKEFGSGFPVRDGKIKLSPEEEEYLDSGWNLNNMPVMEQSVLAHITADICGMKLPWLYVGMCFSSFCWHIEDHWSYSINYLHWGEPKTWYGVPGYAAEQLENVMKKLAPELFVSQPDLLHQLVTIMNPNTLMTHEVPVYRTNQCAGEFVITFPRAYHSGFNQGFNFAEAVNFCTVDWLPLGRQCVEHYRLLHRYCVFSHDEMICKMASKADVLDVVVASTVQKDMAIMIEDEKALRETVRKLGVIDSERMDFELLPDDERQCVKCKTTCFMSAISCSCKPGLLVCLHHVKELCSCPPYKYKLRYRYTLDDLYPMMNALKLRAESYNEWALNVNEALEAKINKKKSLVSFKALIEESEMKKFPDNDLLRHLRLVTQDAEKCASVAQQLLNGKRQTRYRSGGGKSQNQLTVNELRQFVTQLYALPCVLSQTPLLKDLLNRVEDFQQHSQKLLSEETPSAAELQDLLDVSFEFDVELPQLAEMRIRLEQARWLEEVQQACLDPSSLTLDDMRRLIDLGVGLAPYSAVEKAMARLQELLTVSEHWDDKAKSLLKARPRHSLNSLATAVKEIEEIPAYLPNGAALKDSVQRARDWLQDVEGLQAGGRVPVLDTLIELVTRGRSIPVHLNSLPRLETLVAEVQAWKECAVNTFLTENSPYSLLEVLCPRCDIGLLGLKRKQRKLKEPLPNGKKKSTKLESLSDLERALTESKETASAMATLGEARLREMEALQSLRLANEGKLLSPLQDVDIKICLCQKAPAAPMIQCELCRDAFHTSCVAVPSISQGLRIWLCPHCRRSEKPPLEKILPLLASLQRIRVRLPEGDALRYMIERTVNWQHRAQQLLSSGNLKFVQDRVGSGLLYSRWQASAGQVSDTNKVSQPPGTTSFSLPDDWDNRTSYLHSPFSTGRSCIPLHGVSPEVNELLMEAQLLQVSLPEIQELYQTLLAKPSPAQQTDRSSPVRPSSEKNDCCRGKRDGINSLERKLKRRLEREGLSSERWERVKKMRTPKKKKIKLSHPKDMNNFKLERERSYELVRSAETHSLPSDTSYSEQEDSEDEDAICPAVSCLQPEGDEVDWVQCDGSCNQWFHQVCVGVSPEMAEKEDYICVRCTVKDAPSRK

Row | SMILES | Potency
1 | O=S(=O)(N[C@H]1CO[C@H]2[C@@H]1OC[C@@H]2n1nnnc1Oc1ccc(-n2cncn2)cc1)c1cccs1 | active: 17.8 µM
2 | COC(=O)c1sc(NC(=O)[C@@H](NC(=O)c2ccc(F)cc2)C(C)C)nc1C | inactive
3 | Cc1ccc(CN2COc3c(Cl)cc4c(-c5ccccc5)cc(=O)oc4c3C2)cc1 | inconclusive: 28.2 µM [inhibitor, partial curve, poor fit]
4 | CCOC(=O)C1=CN(CC(=O)Nc2c(C)cccc2CC)S(=O)(=O)N=C1C | inconclusive: 20 µM [inhibitor, partial curve]
5 | CCNC(=O)NC(=O)C(C)OC(=O)c1cc(-c2ccco2)nc2ccccc12 (configuration not stated) | inconclusive: 39.8 µM [inhibitor, partial curve, poor fit]
6 | COc1cc(CC(=O)NC2CCC(C)CC2)ccc1C (configuration not stated) | inactive
7 | Cc1ccc(C(=O)NC(c2cccnc2)c2cc(C)ccc2C)cc1 (configuration not stated) | inactive
8 | Cc1cccc(CSc2nnc3[nH]c(=O)cc(-c4ccccc4)n23)c1 | inconclusive: 35.5 µM [inhibitor, single point]
9 | O=C(c1ccc(Cl)cc1)N1CCC2(C1)C(=O)N(Cc1ccccc1)c1ccccc12 (configuration not stated) | inconclusive: 89.1 µM [inhibitor, partial curve, poor fit]
10 | O=C(c1cccs1)N1CCN(Cc2ccc(=O)n(CC3CC3)c2)CC1 | inactive
11 | COc1cc(-c2nc3ccc(Cl)cn3c2Nc2ccc3c(c2)OCCO3)ccc1O | inconclusive: 28.2 µM [inhibitor, partial curve, poor fit]
12 | Cc1ccc(NCc2cc3cccc(C)c3[nH]c2=O)c(C)c1 | inconclusive: 17.8 µM [inhibitor, partial curve, poor fit]
13 | COc1ccc(N2C(=O)C3C(C2=O)C(C(=O)c2ccccc2)N2CCCC32)cc1 (configuration not stated) | inconclusive: 39.8 µM [inhibitor, single point]
14 | CCOC(=O)c1ccc(Oc2coc3cc(OCC=C(C)C)ccc3c2=O)cc1 | inactive
15 | Cn1c(C(=O)Nc2ccc(OC(F)(F)F)cc2)cc2c(=O)n3ccccc3nc21 | inconclusive: 15.8 µM [inhibitor, partial curve, poor fit]
16 | CCc1cccc(NC(=O)c2ccc3c(c2)c(C)c(C)n3Cc2ccc(F)cc2)c1 | inconclusive: 28.2 µM [inhibitor, partial curve, poor fit]
17 | CCc1ccc(Nc2nc(CSc3ccc(Cl)cc3)nc3sc4c(c23)CCC4)cc1 | inactive
18 | O=C1NCCCCCCN[C@H]2C[C@H](C(=O)N3CCc4ccccc4C3)C[C@@H]12 | inactive
19 | Cc1ccc(C(=O)N2CCC(c3nc(C4CCOCC4)no3)CC2)cn1 | inactive
20 | COc1cccc(NC(=O)Cn2c(=O)n(-c3ccccc3)c(=O)c3c2c2cc(OC)ccc2n3C)c1 | inconclusive: 0.794 µM [inhibitor, full curve, poor fit]
21 | COC(=O)c1ccccc1NCCO | inconclusive: 28.2 µM [inhibitor, partial curve, poor fit]

Row | SMILES | Potency
22 | Cc1ccc(C(=O)N2CC=C(c3c[nH]c4ccccc34)CC2)cc1 | inconclusive: 25.1 µM [inhibitor, partial curve, poor fit]
23 | CC1=C[C@@H](CN2CCN(c3cnccn3)CC2)[C@H](C(C)C)C[C@H]1Cc1nnc(-c2cccnc2)o1 | active: 31.6 µM
24 | Cc1ccc(CN2CCCCCCNC(=O)[C@@H]3CCC[C@@H]32)s1 | inconclusive: 8.91 µM [inhibitor, full curve]
25 | COc1cccc(C(=O)NCC2CCCN(Cc3ccn[nH]3)C2)c1OC (configuration not stated) | inactive
26 | COc1ccc(-n2nc3c(N4CCCC(C(=O)NCCc5ccccc5C)C4)nnc(C)c3c2C)cc1 (configuration not stated) | inconclusive: 22.4 µM [inhibitor, partial curve, poor fit]
27 | Cc1ccc(CN2CCCC2)cc1 | inconclusive: 39.8 µM [inhibitor, single point]
28 | C[N+]1(CC#Cc2ccccc2)CCC(c2ccccc2)(c2ccccc2)CC1 | inactive
29 | Cc1cc(C(=O)CN(C)Cc2ccc3c(c2)OCO3)c(C)n1C(C)C | inconclusive: 39.8 µM [inhibitor, single point]
30 | CCOc1ccccc1NC(=O)Cn1c(=O)n(C(C)C)c(=O)c2oc3ccccc3c21 | inconclusive: 25.1 µM [inhibitor, partial curve, poor fit]
31 | O=C(NCc1ccco1)c1cc2c(s1)CCN(C(=O)c1ccc(Cl)cc1)C2 | inactive
32 | CCc1cc(Nc2ccccc2OC)n2ncnc2n1 | inactive
33 | Cn1cccc1CN1CCC(N2CCNC2=O)CC1 | inconclusive: 56.2 µM [inhibitor, partial curve]
34 | COc1ccc(CN2C(=O)[C@@H]3C[C@@H](CN3CC3CC3)Oc3ccccc32)cc1 | inconclusive: 25.1 µM [inhibitor, partial curve, poor fit]
35 | CCS(=O)(=O)N1CCOc2ccc(CN3CCc4ccccc4C3)cc2C1 | inconclusive: 11.2 µM [inhibitor, partial curve, poor fit]
36 | COCCN[C@@H]1C[C@@H]2c3[nH]c4ccccc4c3C[C@@H](C(=O)OC)N2[C@H](c2ccc(C(C)C)cc2)C1 | inconclusive: 3.98 µM [inhibitor, full curve]
37 | CCOc1ccc2nc(Cl)c(C3CC(c4ccco4)=NN3S(C)(=O)=O)cc2c1 (configuration not stated) | inconclusive: 39.8 µM [inhibitor, partial curve, poor fit]
38 | Cc1nn(C)cc1CN(C)Cc1cn(C)nc1-c1ccc(C2CCCCC2)cc1 | inactive
39 | COc1ccc(N2CCN(CCNC(=O)c3ccc4nc5ccccc5c(=O)n4c3)CC2)cc1 | inconclusive: 28.2 µM [inhibitor, partial curve, poor fit]
40 | CC1=C(C(=O)Nc2ccccc2C(=O)NCCc2ccco2)SCCO1 | inactive
41 | COc1ccc2c(=O)n(CC(=O)N(C)CCc3cnn(C)c3)ccc2c1OC | inconclusive: 14.1 µM [inhibitor, partial curve, poor fit]
42 | Cc1ccc(N2NC3(CCCCC3)NC2=S)cc1 | inconclusive: 39.8 µM [inhibitor, partial curve, poor fit]
